This note sets out measurements from ChEMBL document CHEMBL4888484, “Replenishing the malaria drug discovery pipeline: Screening and hit evaluation of the MMV Hit Generation Library 1 (HGL1) against asexual blood stage Plasmodium falciparum ,using a nano luciferase reporter read-out” (2022).

Each structure is given as a SMILES string. About 540 (0.36%) of roughly 150,000 compounds showed an effect of 50% or more. The list shows a part of the results.

This assay has as its system Plasmodium falciparum. The experiment in a line: Primary screen in NF54 nanoGlo assay, in single point, at 2uM, 72h; a lower Z score goes with more inhibition. The assay is classed as functional, Erythrocyte. The note with it: timepoint 72 hour.

Broadly, the % Inhibition is the relative decrease from the control value, in per cent. For `CCOC(=O)c1[nH]cc(C)c1C(F)(F)F`, the “% Inhibition” value is listed as -4% and the Z score is listed as 0.41.
`CCN1CCC(C(=O)N2CC(C)(C)[C@@](O)(C3CC3)C2)CC1`: the “% Inhibition” value is given as -1% and the Z score was determined as 0.22.
For the compound `CCOCCCNC(=O)CN1CCn2nc(-c3ccc(Cl)cc3)cc2C1=O`, the “% Inhibition” value was -11% and the Z score is recorded as 1.46.
The corresponding values for `C[C@@H](c1ccc2c(c1)OCCO2)N(C)C(=O)CCc1nnc(-c2ccc3c(c2)OCO3)o1` are -16% and 1.45.
The corresponding values for `CCOC(=O)c1cnn(CCC#N)c1NS(=O)(=O)c1ccc2c(c1)OCCCO2` are 3% and -0.49.
Turning to `O=C(CN1CCN(C(=O)Nc2ccc(Br)cc2)CC1=O)NCc1ccccc1F`, the “% Inhibition” value was -14% and the Z score stood at 1.82.
In the same order, the values of `N[C@H]1CN(C(=O)c2cccc3c2COCC3)CC12CCC2` are -2% and 0.38.
In the same order, the values of `COc1cccc(NC(=O)c2coc(NC(=O)c3ccsc3)n2)c1` are 0% and 0.02.
The corresponding values for `COc1cc(C(=O)Nc2ccc3sc(NC(=O)c4cc(OC)c(OC)c(OC)c4)nc3n2)cc(OC)c1OC` are 101% and -16.35.
Consider `CC(C)[C@@H]1NC(=O)c2ccccc2N(CC(=O)Nc2nccs2)C1=O`, for which the “% Inhibition” value is given as -2% and the Z score was 0.27.
Consider `O=C(O)c1ccc(N2C[C@H](NC(=O)C3CCOCC3)[C@@H](C3CC3)C2)nc1`, for which the “% Inhibition” value is -10% and the Z score was 1.17.
Turning to `CN1C(=O)N(CC(=O)C(C)(C)c2ccccc2)S(=O)(=O)c2ccccc21`, the “% Inhibition” value is reported as -5% and the Z score was found to be 0.98.
In the same order, the values of `COCCN1C[C@@H](Cc2nc(C)c(C)c(C)c2C#N)CC1=O` are 2% and -0.29.
In the same order, the values of `CCS(=O)(=O)N[C@@H](CN1CCCC1)C(C)(C)C` are -5% and 0.85.
In the same order, the values of `O=C1CCC(CCC(=O)N[C@@H]2[C@H]3CCO[C@H]3[C@H]2Cc2ccccc2)=NN1` are 5% and -0.51.
With `O=C(Nc1ccsc1C(=O)N[C@H]1CCCC[C@@H]1O)c1ccncc1`, the “% Inhibition” value is 7% and the Z score is -1.09.
Turning to `CC(C)Cc1ccc(CN2C[C@H](O)[C@@H](F)C2)s1`, the “% Inhibition” value was -8% and the Z score is listed as 0.97.
In the same order, the values of `CC(C)Cc1cc(CN2CCN(CC3CC3)[C@@H]3CS(=O)(=O)C[C@@H]32)n[nH]1` are 1% and -0.12.
The corresponding values for `COC(=O)CN1CCC(c2ccnc3ccccc23)CC1` are -2% and 0.19.
The corresponding values for `CC(C(=O)O)C(=O)NC1CCN(c2ccc(Cl)cc2Cl)C1` (centres undefined) are -15% and 1.8.
For the compound `CC[C@H](C)NC(=O)c1sc2nc(C)c(C(=O)Nc3ccc(C)cc3C)c(-c3cccs3)c2c1N`, the “% Inhibition” value is reported as 17% and the Z score is reported as -2.61.
In the same order, the values of `Nc1nc2c(c(-c3ccccc3)n1)CN(C(=O)CCc1ccc3c(c1)OCO3)C2` are -14% and 1.88.
The corresponding values for `Cc1ncsc1CCN(C)[C@@H](C)C(=O)Nc1nccs1` are 4% and -0.64.
In the case of `Cc1ccc(CNS(=O)(=O)c2ccc(-c3cnc(C4CC4)o3)cc2)o1`, the “% Inhibition” value is given as -11% and the Z score was determined as 1.99.
For `CN1CCC(NC(=O)c2nnc(-c3c(F)cccc3F)s2)CC1`, the “% Inhibition” value is -6% and the Z score amounted to 0.83.
Consider `CC(=O)[C@@H]1C[C@H](C(=O)NCC2CCCOC2)C1(C)C` (some centres undefined), for which the “% Inhibition” value came out at 0% and the Z score is -0.02.
Take `CC(C)C[C@H]1C(=O)NCCN1S(=O)(=O)CCCN1CCOCC1`: the “% Inhibition” value is -4% and the Z score is 0.66.
The corresponding values for `Cc1ccccc1-c1cn2c(C(=O)N(C)CCN3CCOCC3)csc2n1` are 14% and -1.79.
The corresponding values for `O=C(NC[C@@]12CCC[C@H]1N(CC1CCCCC1)C(=O)CC2)c1ccno1` are -4% and 0.49.
The corresponding values for `CCc1csc(CNC(=O)Nc2c(OC)nn(C)c2C)n1` are 3% and -0.59.
In the case of `CN1Cc2ccccc2N=C1c1ccccc1`, the “% Inhibition” value is 5% and the Z score was -0.71.
With `O=C(OCc1nc(C2CC2)cs1)C1=CCCCCC1`, the “% Inhibition” value is -7% and the Z score is reported as 0.88.
With `O=C(NC1CC1)c1ccc2ncsc2c1`, the “% Inhibition” value is given as -9% and the Z score amounted to 1.47.
With `COc1ccc(-c2cn(CC(=O)NCc3cccc(Cl)c3)nc2N(C)C)cc1`, the “% Inhibition” value is listed as -13% and the Z score was found to be 1.52.
In the same order, the values of `CS(=O)(=O)N1CCC[C@@H]1CNC(=O)C1CC1c1ccc(F)cc1F` (some centres undefined) are -7% and 1.04.
The corresponding values for `c1ccc2oc(CN3Cc4nc[nH]c4C[C@H]3c3nc(-c4cnccn4)no3)cc2c1` are -3% and 0.44.
For the compound `CC(C)(Cc1ccccc1)C(=O)N1CC(O)(CC#N)C1`, the “% Inhibition” value came to 1% and the Z score is -0.15.
In the same order, the values of `COc1ccc([C@H]2[C@H](C(=O)NC3CCC3)CCC(=O)N2C)cc1` are 2% and -0.35.
In the same order, the values of `Cc1cc(OCc2ccccc2)ccc1-c1nc2c([nH]1)CCNC2` are 3% and -0.53.
The corresponding values for `CC(C)CC(=O)N1CCC2(CC1)C[C@@H](N(C(=O)c1ccccc1)C1CC1)CCO2` are 2% and -0.34.
Regarding `N=C(NS(=O)(=O)c1ccccc1)N1CCOCC1`, the “% Inhibition” value is -7% and the Z score came out at 0.91.
In the same order, the values of `CCn1nc(C)c(CCN(C)C(=O)Nc2ccc3c(c2)OCO3)c1C` are -10% and 0.95.
